# According to patent US20120183541A1 (Five Prime, published 2012):
# B1: FGFR4ECD(ABMut1: delta17)-Fc (Fc fusion)
# chain: LEASEEVELEPCLAPSLEQQEQELTVALGQPVRLCCGRAERGGHWYKEGSRLAPAGRVRGWRGRLEIASFLPEDAGRYLCLARGSMIVLQNLTLITGDALPSSEDDDDDDDSSSEEKETDNTKPNPVAPYWTHPQRMEKKLHAVPAGNTVKFRCPAAGNPTPTIRWLKDGQAFHGENRIGGIRLRHQHWSLVMESVVPSDRGTYTCLVENAVGSIRYNYLLDVLERSPHRPILQAGLPANTTAVVGSDVELLCKVYSDAQPHIQWLKHIVINGSSFGADGFPYVQVLKTADINSSEVEVLYLRNVSAEDAGEYTCLAGNSIGLSYQSAWLTVLP[no letters for human IgG1 Fc with changes]
# notes: The entry is the whole ECD-Fc fusion; also called FGFR4 ECD Δ17 R1 D1-D2 linker chimera + Fc
# B2: FGFR4ECD(ABMut2: delta17)-Fc (Fc fusion)
# chain: LEASEEVELEPCLAPSLEQQEQELTVALGQPVRLCCGRAERGGHWYKEGSRLAPAGRVRGWRGRLEIASFLPEDAGRYLCLARGSMIVLQNLTLITGDALPSSEDDDDDDDSSSEEKETDNTKPNQAPYWTHPQRMEKKLHAVPAGNTVKFRCPAAGNPTPTIRWLKDGQAFHGENRIGGIRLRHQHWSLVMESVVPSDRGTYTCLVENAVGSIRYNYLLDVLERSPHRPILQAGLPANTTAVVGSDVELLCKVYSDAQPHIQWLKHIVINGSSFGADGFPYVQVLKTADINSSEVEVLYLRNVSAEDAGEYTCLAGNSIGLSYQSAWLTVLP[no letters for human IgG1 Fc with changes]
# notes: The entry is the whole ECD-Fc fusion; also called FGFR4 ECD Δ17 R1 exon 4 chimera + Fc
# B3: FGFR4ECD(ABMut3: delta17)-Fc (Fc fusion)
# chain: LEASEEVELEPCLAPSLEQQEQELTVALGQPVRLCCGRAERGGHWYKEGSRLAPAGRVRGWRGRLEIASFLPEDAGRYLCLARGSMIVLQNLTLITGDSLTSSEDDDDDDDSSSEEPSNRHSYPQQAPYWTHPQRMEKKLHAVPAGNTVKFRCPAAGNPTPTIRWLKDGQAFHGENRIGGIRLRHQHWSLVMESVVPSDRGTYTCLVENAVGSIRYNYLLDVLERSPHRPILQAGLPANTTAVVGSDVELLCKVYSDAQPHIQWLKHIVINGSSFGADGFPYVQVLKTADINSSEVEVLYLRNVSAEDAGEYTCLAGNSIGLSYQSAWLTVLP[no letters for human IgG1 Fc with changes]
# notes: The entry is the whole ECD-Fc fusion
# B4: FGFR4ECD(2Ig + Linker)-GS linker-Fc (Fc fusion)
# chain: LEASEEVELEDSLTSSNDDEDPKSHRDPSNRHSYPQQAPYWTHPQRMEKKLHAVPAGNTVKFRCPAAGNPTPTIRWLKDGQAFHGENRIGGIRLRHQHWSLVMESVVPSDRGTYTCLVENAVGSIRYNYLLDVLERSPHRPILQAGLPANTTAVVGSDVELLCKVYSDAQPHIQWLKHIVINGSSFGADGFPYVQVLKTADINSSEVEVLYLRNVSAEDAGEYTCLAGNSIGLSYQSAWLTVLPEEDPTWTAAAPEARYTDGS[no letters for human IgG1 Fc with changes]
# notes: The entry is the whole ECD-GS-Fc fusion; also called R4(2Ig + L); R4(2Ig+L)
# B5: FGFR4ECD(2Ig-Linker)-GS linker Fc (Fc fusion)
# chain: LEASEEVELEAPYWTHPQRMEKKLHAVPAGNTVKFRCPAAGNPTPTIRWLKDGQAFHGENRIGGIRLRHQHWSLVMESVVPSDRGTYTCLVENAVGSIRYNYLLDVLERSPHRPILQAGLPANTTAVVGSDVELLCKVYSDAQPHIQWLKHIVINGSSFGADGFPYVQVLKTADINSSEVEVLYLRNVSAEDAGEYTCLAGNSIGLSYQSAWLTVLPEEDPTWTAAAPEARYTDGS[no letters for human IgG1 Fc with changes]
# notes: The entry is the whole ECD-GS-Fc fusion; also called R4(2Ig-L); R4(2Ig - L)
# Target: T1, FGF2 (UniProt P09038 fragment)
# T1 construct: Commercial protein
# Assay: SPR (Biacore), Fc fusion captured on Protein A chip, FGF2 injected, 50 uM heparin, 1:1 model
# Method: (§1) The FGF2 and FGF19 ligand binding affinity and kinetics of R4Mut4 and five different FGFR4 ECD variant-Fc fusion proteins (collectively “FGFR4 ECD proteins”) were determined using Biacore® X surface plasmon resonance (SPR) technology (Uppsala, Sweden). FGF2 was selected because it is broadly expressed in adult tissue. FGF19 was selected because, in the absence of other protein cofactors, it binds specifically to FGFR4. Briefly, Protein-A was covalently linked to a CM5 chip, according to manufacturer's instructions. The FGFR4 ECD proteins were bound to the chip by interaction of the Fc domain with protein A. The FGFR4 ECD proteins were captured onto flow channels 2-4, while channel 1 served as a reference. FGF2 was purchased from Peprotech (Rocky Hill, N.J.) and FGF19 was purchased from R&D Systems. Each FGF ligand was injected at 5 concentrations (100 nM, 25 nM, 6.25 nM, 1.56 nM, and 0 nM) for 2 minutes and dissociation was monitored for 4 minutes. 50 uM Heparin was included in the running buffer. The association constant, dissociation constant, affinity, and binding capacity of each of the R4 proteins for FGF2 and FGF19 was calculated using the Biacore T100 Evaluation software package using the 1:1 binding model.
# FGF2, sequence (P09038 135-288 limits assumed): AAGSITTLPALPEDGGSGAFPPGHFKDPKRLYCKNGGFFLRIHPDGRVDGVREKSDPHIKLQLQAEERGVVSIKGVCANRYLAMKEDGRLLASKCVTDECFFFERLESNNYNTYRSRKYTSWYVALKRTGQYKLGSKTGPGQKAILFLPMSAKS
Binder,Kd,koff,kon
B1,1.7 nM,0.00027 s⁻¹,160000 M⁻¹ s⁻¹
B2,2.26 nM,0.00026 s⁻¹,114000 M⁻¹ s⁻¹
B3,1.44 nM,0.00035 s⁻¹,242000 M⁻¹ s⁻¹
B4,2.54 nM,0.00079 s⁻¹,313000 M⁻¹ s⁻¹
B5,2.4 nM,0.00073 s⁻¹,306000 M⁻¹ s⁻¹

# Target: T2, FGF19 (UniProt O95750)
# T2 construct: Commercial protein
# Assay: SPR (Biacore), Fc fusion captured on Protein A chip, FGF19 injected, 50 uM heparin, 1:1 model
# Method: as §1
Binder,Kd,koff,kon
B1,3.18 nM,0.00068 s⁻¹,213000 M⁻¹ s⁻¹
B2,2.58 nM,0.00064 s⁻¹,250000 M⁻¹ s⁻¹
B3,3.5 nM,0.00074 s⁻¹,211000 M⁻¹ s⁻¹
B4,34.3 nM,0.00276 s⁻¹,80000 M⁻¹ s⁻¹
B5,18.1 nM,0.00214 s⁻¹,118000 M⁻¹ s⁻¹

# Target: T2, FGF19
# Assay: SPR (Biacore), against parental R4Mut4
# Method: The FGF2 and FGF19 ligand binding affinity and kinetics of R4Mut4 and five different FGFR4 ECD variant-Fc fusion proteins (collectively “FGFR4 ECD proteins”) were determined using Biacore® X surface plasmon resonance (SPR) technology (Uppsala, Sweden). FGF2 was selected because it is broadly expressed in adult tissue. FGF19 was selected because, in the absence of other protein cofactors, it binds specifically to FGFR4. Briefly, Protein-A was covalently linked to a CM5 chip, according to manufacturer's instructions. […] Each FGF ligand was injected at 5 concentrations (100 nM, 25 nM, 6.25 nM, 1.56 nM, and 0 nM) for 2 minutes and dissociation was monitored for 4 minutes. […] The association constant, dissociation constant, affinity, and binding capacity of each of the R4 proteins for FGF2 and FGF19 was calculated using the Biacore T100 Evaluation software package using the 1:1 binding model.
# In addition, FGFR4 2Ig ECD-Fc fusion proteins in which a portion of the D1 domain was deleted, in either the presence (R4(2Ig+L); SEQ ID NO: 55) or absence (R4(2Ig-L); SEQ ID NO: 56) of the D1-D2 linker region, bound FGF2 with an affinity equal to or greater than the parental R4Mut4 in that experiment, as measured by the equilibrium dissociation constant (KD). […]
# T2 sequence (O95750 25-216 limits assumed): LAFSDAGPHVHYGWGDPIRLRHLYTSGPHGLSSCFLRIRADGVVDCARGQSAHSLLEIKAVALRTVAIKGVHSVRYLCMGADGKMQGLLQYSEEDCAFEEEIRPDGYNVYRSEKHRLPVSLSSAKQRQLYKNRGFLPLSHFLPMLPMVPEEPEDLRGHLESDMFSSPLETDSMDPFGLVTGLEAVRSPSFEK
row,Binder,fold reduction of binding against parental R4Mut4
1,B4,~10 fold
2,B5,~5 fold
